Screen size: about 360,000 compounds; about 740 (0.21%) were called active. The inconclusive results got no clear call from the source; some entries with a clear call stand among them for comparison. The call rests on the fitted dose curve; in most records, active means well fitted inhibition curve with a large enough effect; inconclusive means small, poorly fitted or top-dose-only effect; inactive means no such curve, though single readings can be large or run the other way. Potencies of inconclusive entries are left out as doubtful fits.
Test system: Plasmodium falciparum AMA1 (3D7) - RON2 peptide interaction
Experiment: qHTS for Inhibitors of AMA1-RON; Towards Development of Antimalarial Drug Lead: Primary Screen; further: nearly all actives have a fitted effect of over 45% in size;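 on activity change, negative = inhibition: 0% = vehicle wells and -100% = peptide control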
Conditions: AlphaScreen AMA1-biotinylated RON2 peptide binding; activity change, negative = inhibition: at 58.2 µM (top of the series) unless noted
Outline: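 AMA1 (3D7) with his tag at 25 nM final met compounds first, then biotinylated RON2 peptide at 25 nM; detection used donor plus acceptor beads, 10 µg/mL apiece, read by AlphaScreen after 30 min at room temperature.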
Potency means the concentration at half of the fitted maximal effect; tags describe the fitted curve by direction and shape.

Row | Compound | Potency | activity change, negative = inhibition
1 | O=C1/C(=C\c2ccco2)SC(=S)N1Cc1ccccc1 | inconclusive [inhibitor, single point] | –
2 | CCCN(CC(=O)Nc1cc(Cl)ccc1Cl)C(=O)c1ccccc1SCC(=O)N1CCCC1 | inactive | –
3 | CCC(C)Sc1ccc([C@@H]2[C@H]3C(=O)N(CC)C(=O)[C@H]3[C@]3(C(=O)OC)CCCN23)cc1OC (stereo not given in full) | inactive | –
4 | CS(=O)(=O)N1CCN(c2ccccc2NC(=O)c2cc3ccccc3o2)CC1 | inactive | –
5 | COc1ccc(C(=O)N(CCCO)C(C)C(=O)NC2CCCCC2)cc1OC (stereo not given) | inconclusive [inhibitor, single point] | –
6 | CCN(CC)c1ccc(NC(=O)CSc2n[nH]c(-c3ccco3)n2)cc1 | inconclusive [inhibitor, single point] | –
7 | COc1ccccc1CNc1nc(NCc2cccc(OC)c2OC)c2sccc2n1 | inconclusive [inhibitor, partial curve] | –
8 | COC(=O)CCC(=O)OC1(C)C(=O)C2=CN(Cc3ccccc3)C(c3ccc(OC)cc3)=CC2=C(Br)C1=O (stereo not given) | inconclusive [inhibitor, single point] | –
9 | O=C(Nc1nc(-c2ccccn2)cs1)c1ncc(Cl)c(Cl)c1Cl | inconclusive [inhibitor, single point] | –
10 | CC(=O)NCCc1nc2cc(NC(=O)c3ccc([N+](=O)[O-])cc3)ccc2n1C | inactive | –
11 | Cc1sc2nc(SCC(=O)N3CC(C)OC(C)C3)n(C)c(=O)c2c1C (stereo not given) | inactive | –
12 | O=C1CC(=C2c3ccccc3-c3ccccc32)C(=O)N1CCN1CCN(c2ccccc2)CC1 | inconclusive [inhibitor, partial curve] | –
13 | O=C1CCCN1CCCNc1ccc(S(=O)(=O)N2CCCCC2)cn1 | inconclusive [inhibitor, partial curve, poor fit] | –
14 | CCN(CCCNC(=O)CC(C(=O)N1CCc2ccccc21)n1ccnc1)c1cccc(C)c1 (stereo not given) | inconclusive [inhibitor, single point] | –
15 | O=[N+]([O-])c1nn(-c2ccc3c(c2)OCCO3)n(O)c1=NCCC1=CCCCC1 | inconclusive [inhibitor, partial curve] | –
16 | CN(CC(=O)Nc1cccc(F)c1)C(=O)c1cc(-c2ccco2)nc2ccccc12 | inconclusive [inhibitor, full curve, poor fit] | –
17 | O=S(=O)(c1cccc(-c2nc3ccccc3s2)c1)N1CCOCC1 | inactive | –
18 | COc1cccc(-n2sc3c(c2=S)-c2cc(OC)ccc2NC3(C)C)c1 | active: 22.4 µM | –
19 | Nc1ccc(Oc2ccc3nc(-c4ccccc4)c(-c4ccc([N+](=O)[O-])cc4)nc3c2)cc1 | inconclusive [inhibitor, partial curve] | –
20 | CC1S/C(=N\N=C\c2cccc([N+](=O)[O-])c2)N(C(C)(C)C)C1=O (stereo not given) | inconclusive [inhibitor, partial curve] | –
21 | COc1ccc(C(CCN(Cc2ccc(OC)c(OC)c2)C(C)=O)c2ccccc2)cc1 (stereo not given) | inactive | –
22 | CC1CN(c2ccc([N+](=O)[O-])cc2Cl)CCN1S(C)(=O)=O (stereo not given) | inactive | –
23 | COc1ccc(-c2csc(-n3ncc(C(=O)O)c3C(F)(F)F)n2)cc1 | inactive | –
24 | COCCNC(=O)/C(C#N)=C/c1cn(CC(=O)NCc2ccco2)c2ccccc12 | inactive | –

Row | Compound | Potency | activity change, negative = inhibition
25 | O=[N+]([O-])c1cccc(-c2csc(Nc3ccccc3)n2)c1 | inconclusive [inhibitor, single point] | –
26 | O=C(Nc1cc(F)c(Br)cc1F)c1ccc(Cl)cc1 | inactive | –
27 | CC(C)OC(=O)CSc1nnc2c3ccccc3n(C)c2n1 | inactive | –
28 | Cc1ccccc1NS(=O)(=O)c1cc(C(=O)NCCC2=CCCCC2)ccc1Cl | – | inconclusive: -3.31% [inhibitor]
29 | Clc1cccc(CN2CCc3c([nH]c4ccccc34)C2)c1 | inconclusive [inhibitor, single point] | –
30 | O=C(NCc1ccccc1)C(c1ccco1)N(C(=O)c1cnccn1)c1ccc(F)cc1 (stereo not given) | – | inconclusive: -10.1% [inhibitor]
31 | COc1ccc(CN2CCc3c([nH]c4ccccc34)C2)cc1Br | inconclusive [inhibitor, partial curve, poor fit] | –
32 | S=C(NN=C(c1ccccc1)c1ccccn1)N(Cc1ccccn1)Cc1ccccn1 | active: 11.2 µM | –
33 | Cc1ccccc1N1CCN(Cc2ccc([N+](=O)[O-])o2)CC1 | inconclusive [inhibitor, partial curve] | –
34 | CCOC(CNC(=O)c1ccc(N2CCc3ccccc32)c([N+](=O)[O-])c1)OCC | inconclusive [inhibitor, single point] | –
35 | CCN(CC)c1ccc(N2C(=O)/C(=C/c3ccccn3)SC2=S)cc1 | inconclusive [inhibitor, partial curve, poor fit] | –
36 | COc1ccc(NC(=O)c2ccc(-c3ccc(-c4noc(C)n4)cc3C)cc2)cc1N1CCN(C)CC1 | inconclusive [inhibitor, single point] | –
37 | O=C(COc1cccc(F)c1)N1c2ccccc2Sc2ccccc21 | inconclusive [inhibitor, partial curve] | –
38 | O=[N+]([O-])c1cccnc1N1CCN(c2ccccc2F)CC1 | inconclusive [inhibitor, single point] | –
39 | COc1ccc(OCC(=O)N2CCN(C3CCC(c4ccccc4)CC3)CC2)cc1 (stereo not given) | inconclusive [inhibitor, partial curve] | –
40 | O=C(NCC(=O)N1CCN(C(c2ccccc2)c2ccccc2)CC1)c1ccccc1F | inconclusive [inhibitor, full curve, poor fit] | –
41 | CN(C)c1ccc(C=Nc2ccc(N(C)C)cc2)cc1 | inconclusive [inhibitor, partial curve] | –
42 | [O-][N+]1=c2ccc(Nc3ccccc3)cc2=NC12CCCCC2 | inconclusive [inhibitor, single point] | –
43 | C/C(=N/NC(=O)CNC(=O)c1cccs1)c1ccco1 | inactive | –
44 | CCOc1cc2c(cc1OCC)-n1cccc1C(c1ccc(F)cc1)NC2 (stereo not given) | inconclusive [inhibitor, partial curve] | –
45 | CCOCCn1c(=O)c2c(nc3n2CCCN3CCc2ccccc2)n(C)c1=O | inactive | –
46 | Cn1c(CNC(=O)c2ccccc2F)nnc1SCc1ccc(Cl)cc1 | inconclusive [inhibitor, partial curve] | –
47 | COc1ccc(CS(=O)(=O)CC(C)(O)c2ccc(Cl)cc2)cc1 (stereo not given) | inactive | –
48 | Cc1cc(C)cc(OCC(=O)Nc2ccc3c(c2)OCO3)c1 | active: 10 µM | –

Row | Compound | Potency | activity change, negative = inhibition
49 | CCOc1ccc(CNC(=O)Cn2ccc3cc(S(=O)(=O)N4CCCC4)ccc32)cc1 | inactive | –
50 | O=C(CCc1nnc2n(Cc3ccc(F)cc3)c(=O)c3ccccc3n12)N1CCN(c2ccccn2)CC1 | inactive | –
51 | COC(=O)c1c(NC(=O)C(=O)NCCCN2CCOCC2)sc2c1CCCC2 | inactive | –
52 | COCCNC(=S)N(CCc1c(C)[nH]c2ccc(F)cc12)Cc1cccs1 | inconclusive [inhibitor, partial curve] | –
53 | COc1ccc(CN2CCN(Cc3ccc(C(F)(F)F)cc3)CC2)cc1 | inconclusive [inhibitor, single point] | –
54 | COc1ccc(OC)c(C(c2nnnn2C2CCCC2)N2CCN(c3ccccc3)CC2)c1 (stereo not given) | inconclusive [inhibitor, partial curve] | –
55 | COc1ccc(N2CCN(C(=O)CN3CCN(C(c4ccccc4)c4ccccc4)CC3)CC2)cc1 | inconclusive [inhibitor, single point] | –
56 | O=C(O)CNC(=O)c1ccc(Oc2c(F)c(F)c(Oc3ccc(C(=O)NCC(=O)O)cc3)c(F)c2F)cc1 | inactive | –
57 | CC(C)(C)n1nnnc1C(c1cccs1)N1CCCC2(CCCCC2)C1 (stereo not given) | inconclusive [inhibitor, single point] | –
58 | Cc1c(C(=O)N2CCCc3ccccc32)oc2ccc(S(=O)(=O)N3CCOCC3)cc12 | inactive | –
59 | O=C(/C=C/c1ccccc1)/C=C/c1ccccc1 | inactive | –
60 | CN1C[C@@H]2[C@@H]3C(=O)N(Cc4ccccc4)C(=O)[C@@H]3[C@](C)(C1=O)N2C(=O)c1ccc(Br)cc1 | inactive | –
61 | C(=N\N1CCN(C2c3ccccc3-c3ccccc32)CC1)/c1cccnc1 | inconclusive [inhibitor, partial curve] | –
62 | CC(=O)Nc1ccc(OCC=C(Cl)Cl)cc1 | inactive | –
63 | Cc1ccc(/C=C2\SC(=S)N(CC3CCCO3)C2=O)o1 (stereo not given) | inconclusive [inhibitor, single point] | –
64 | CCCS(=O)(=O)N1CCN(Cc2ccc3c(c2)c2ccccc2n3CC)CC1 | – | inactive: 0.417% [at 11.6 µM]
65 | CC(=O)C1=C(O)C(=O)N(c2ccc(C)cc2)C1c1ccccn1 (stereo not given) | inactive | –
66 | COC(=O)C1=C(C)OC(N)=C(C#N)C1c1cc2cc(C)ccc2nc1Cl (stereo not given) | inactive | –
67 | COc1ccccc1-c1cccc([C@@H]2C[C@H]3[C@H](CON3C)CN2Cc2ccccc2)c1 | inconclusive [inhibitor, partial curve] | –
68 | CC(=O)NS(=O)(=O)c1ccc(N=c2ssc3c2-c2cc(C)ccc2NC3(C)C)cc1 | inconclusive [inhibitor, full curve, poor fit] | –
69 | OC(COC(c1ccc(F)cc1)c1ccc(F)cc1)CN1CCCC(C(F)(F)F)C1 (stereo not given) | inconclusive [inhibitor, partial curve] | –
70 | O=C(CSc1ccc(-c2ccccn2)nn1)c1ccccc1 | inconclusive [inhibitor, partial curve] | –
